# Values joined by “and” are separate entries in the source; they are usually repeats but may differ in a detail not shown here. Equal entries are not always repeated. Among all 360,000 compounds or so, about 25,000 (6.9%) were called active. The inconclusive results got no clear call from the source; some entries with a clear call stand among them for comparison. The call rests on the fitted dose curve; in most records, active means well fitted inhibition curve with a large enough effect; inconclusive means small, poorly fitted or top-dose-only effect; inactive means flat fitted curve, though single readings scatter. Potencies of inconclusive entries are doubtful fits and often do not repeat.
# Target: Luciferin 4-monooxygenase (Photinus pyralis) (UniProt P08659)
# Assay: qHTS profiling assay for firefly luciferase inhibitor/activator using purifed enzyme and Km concentrations of substrates (counterscreen for miR-21 project); further: nearly all actives have a fitted effect of over 55% in size;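 on activity change, negative = inhibition: plate controls were vehicle for no effect and reference inhibitor for full effect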
# Settings: purified FLuc, luminescence inhibition; activity change, negative = inhibition: at 57.5 µM (top of the series)
# Outline: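 Purified P. pyralis luciferase, 10 nM final, with Km-level 10 uM D-luciferin and 10 uM ATP in 50 mM Tris acetate pH 7.5, 10 mM Mg acetate, 0.01% Tween-20, 0.05% BSA; 6-point qHTS titration about 60 µM downward; luminescence read.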
# Potency means the concentration at half of the fitted maximal effect; tags describe the fitted curve by direction and shape.
# Sequence of UniProt P08659 (P08659 whole entry, looked up): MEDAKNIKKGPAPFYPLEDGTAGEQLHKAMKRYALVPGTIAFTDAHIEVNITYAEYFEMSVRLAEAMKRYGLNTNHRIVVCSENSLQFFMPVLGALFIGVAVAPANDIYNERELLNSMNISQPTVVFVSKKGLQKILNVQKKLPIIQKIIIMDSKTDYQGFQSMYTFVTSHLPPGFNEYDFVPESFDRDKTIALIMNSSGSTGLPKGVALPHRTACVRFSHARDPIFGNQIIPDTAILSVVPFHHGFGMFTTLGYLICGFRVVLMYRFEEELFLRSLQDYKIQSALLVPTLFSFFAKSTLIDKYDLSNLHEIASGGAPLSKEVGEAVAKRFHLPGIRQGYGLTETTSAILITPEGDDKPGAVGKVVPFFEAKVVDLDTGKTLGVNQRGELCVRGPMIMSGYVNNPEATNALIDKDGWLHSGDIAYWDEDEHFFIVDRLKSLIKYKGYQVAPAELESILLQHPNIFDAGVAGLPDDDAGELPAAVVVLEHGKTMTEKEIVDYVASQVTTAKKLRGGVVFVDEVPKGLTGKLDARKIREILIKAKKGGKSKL
Structure (SMILES),Potency,"activity change, negative = inhibition"
NC(=O)c1ccccc1NCC(=O)c1ccc(F)cc1,"inconclusive: 15.1 µM [inhibitor, partial curve]",
CC(=O)N(C)c1ccc(NC(=O)COc2ccc(Br)cc2C)cc1,"inconclusive: 37.9 µM [inhibitor, partial curve, poor fit]",
CN(NC1OC(=O)c2ccccc21)c1ccccc1[N+](=O)[O-] (stereo unspecified),"inconclusive: 23.9 µM [inhibitor, partial curve, poor fit]",
Cc1ccc(N2NC(=O)/C(=C/C=C/c3ccco3)C2=O)cc1C,"inconclusive: 13.5 µM [inhibitor, partial curve]",
CCOC(=O)c1c(C)[nH]c(C(=O)N/N=C/c2ccc(OC)c(OC)c2)c1C,"inconclusive: 37.9 µM [inhibitor, partial curve, poor fit]",
CCOc1ccccc1NC(=O)c1c(NC(=O)COc2ccccc2)sc2c1CCCCC2,,inactive: 0.496%
Cc1cc(C(=O)COC(=O)c2cc(Cl)ccc2N)c(C)n1Cc1ccco1,active: 2.39 µM,
CCc1ccc(NC(=O)Nc2ccc3c(c2)N(C)C(=O)CS3)cc1,"inconclusive: 12 µM [inhibitor, partial curve]",
Nc1n[nH]c(=S)n1/N=C1/C(=O)Nc2ccccc21,active: 15.1 µM,
CSc1ccc(CCNC(=O)c2cnn(-c3ccccc3)c2-n2cccc2)cc1,,inactive: -14.2%
COc1cccc(OCc2cc(C(=O)N3CCNC(=O)C3Cc3ccccc3)no2)c1 (stereo unspecified),"inconclusive: 26.9 µM [inhibitor, partial curve]",
COc1ccc(C)cc1Nc1nc(N)c2ccccc2n1,"inconclusive: 21.3 µM [inhibitor, partial curve]",
COc1ccc(-c2cc3nc4n(c(=O)c3s2)CCCCC4)cc1,active: 1.35 µM,
Cc1cc(C)n(CC(O)Cn2c3ccccc3c3ccccc32)n1 (stereo unspecified),,inactive: 1.69%
Cc1cccc(NC(=O)c2cc(S(=O)(=O)N3CCc4ccccc43)ccc2F)c1C,,inactive: -5.39%
CCS(=O)(=O)c1ccc2oc(=O)c(/C=C(\O)c3ccc(Cl)cc3)nc2c1,"inconclusive: 37.9 µM [inhibitor, partial curve, poor fit]",
Cc1nn(Cc2ccccc2)c(C)c1CNC(=O)c1ccc(F)c(S(=O)(=O)N2CCOCC2)c1,,inactive: 5.42%
O=C(N/N=C/c1sc(=O)n(-c2ccccc2)c1Cl)c1ccncc1,"inconclusive: 8.49 µM [inhibitor, partial curve]",
c1ccc(-n2ncc3c2ncn2nc(-c4ccco4)nc32)cc1,active: 0.849 µM,
O=C(N/N=C/c1ccccn1)c1ccco1,"inconclusive: 21.3 µM [inhibitor, partial curve]",
Cc1nc(N[C@@H](Cc2c[nH]c3ccccc23)C(=O)O)c2oc3ccccc3c2n1,"inconclusive: 16.9 µM [inhibitor, partial curve, poor fit]",
CCOC(=O)N1CCc2[nH]c3ccc(C)cc3c2C1,"inconclusive: 23.9 µM [inhibitor, partial curve, poor fit]",
CCOc1cccc(C(=O)Nc2ccc3oc(-c4cccnc4)nc3c2)c1,"inconclusive: 9.53 µM [inhibitor, partial curve] and inconclusive: 16.9 µM [inhibitor, partial curve, poor fit]",
COc1ccc(N2CCN(C(=O)CSc3nnc4c5cc(C)ccc5n(C)c4n3)CC2)cc1,"inconclusive: 37.9 µM [inhibitor, partial curve, poor fit]",

Structure (SMILES),Potency,"activity change, negative = inhibition"
COc1cccc(NC(=O)Nc2cc(C)on2)c1,"inconclusive: 19 µM [inhibitor, partial curve]",
CS(=O)(=O)Nc1ccccc1C(=O)Nc1ccccc1Cl,"inconclusive: 19 µM [inhibitor, partial curve, poor fit]",
COc1cc2[nH]c3c(N4CCN(c5ccc(Cl)cc5)CC4)ncnc3c2cc1OC,"inconclusive: 10.7 µM [inhibitor, partial curve, poor fit]",
O=c1c2ccccc2nc2c3ccccc3ncn12,"inconclusive: 13.5 µM [inhibitor, partial curve, poor fit]",
Cc1ccccc1C(=O)Nc1ccc(O)cc1C(=O)O,"inconclusive: 23.9 µM [inhibitor, partial curve]",
Cc1cccc(/C(N)=N/OC(=O)c2ccc(Cl)cc2Cl)c1,active: 0.478 µM,
Cc1nc2c(c(=O)c3ccccc3n2C)c(=O)n1C1CCCCCC1,"inconclusive: 23.9 µM [inhibitor, partial curve]",
Cc1noc(C)c1S(=O)(=O)Nc1ccc(C(=O)Nc2ccc(Br)cc2)cc1,"inconclusive: 16.9 µM [inhibitor, partial curve]",
COc1cc(NC(=O)CCn2cnc3ccccc3c2=O)cc(OC)c1,,inactive: -5.77%
Cc1cc(C)cc(NC(=O)C2CCCN(c3ncccn3)C2)c1 (stereo unspecified),,inactive: -1.93%
CCOc1ccccc1NC(=O)COC(=O)Cc1ccc(-c2ccccc2)cc1,"inconclusive: 30.1 µM [inhibitor, partial curve, poor fit]",
O=C(O)c1cn(-c2ccc(N3CCCC3)c(F)c2)c2c(F)c(F)c(F)cc2c1=O,"inconclusive: 37.9 µM [inhibitor, partial curve, poor fit]",
CCCCC(=O)Nc1nc(C)c(C(C)=O)s1,,inactive: -1.47%
O=C1/C(=C/c2ccccc2F)SC(=S)N1CCC(=O)N1CCCCC1CCO (stereo unspecified),"inconclusive: 26.9 µM [inhibitor, single point]",
CCCCn1c(N)c(N(CCOC)C(=O)c2cc(C)oc2C)c(=O)[nH]c1=O,,inactive: 3.44%
CCOc1ccc2c(c1)C(c1ccc(C)cc1)=NNC(c1ccc(C)cc1)=N2,active: 23.9 µM,
COc1ccc(S(=O)(=O)N2CCOCC2)cc1NC(=O)c1cc(=O)[nH]c2ccccc12,,inactive: 14.8%
C[C@H](NC(=O)c1ccccc1Cl)C(=O)Nc1ccccc1F,,inactive: -1.81%
COc1ccc(C2Nc3ccc(Br)cc3C(c3ccccc3)N2CC(=O)O)cc1 (stereo unspecified),"inconclusive: 16.9 µM [inhibitor, partial curve]",
O=C(Cc1ccccc1F)Nc1nc(-c2ccc(F)c(F)c2)cs1,active: 13.5 µM,
CC#CCN(Cc1ccco1)C(=O)c1ccc(OC2CCN(Cc3ccccn3)CC2)cc1,,inactive: 4.4%
O=c1[nH]c(CSc2nnc(Nc3ccccc3)s2)nc2ccccc12,,inactive: 1.02%
COc1ccc(-c2ccc(C(C)=O)cc2)cc1[C@H]1[C@@H]2C=CCC[C@@]2(C)C(=O)N1Cc1ccccc1,,inactive: 0.367%
COC(=O)c1ccc(NC(=S)NC(=O)C2CCC2)cc1,"inconclusive: 26.9 µM [inhibitor, single point]",

Structure (SMILES),Potency,"activity change, negative = inhibition"
CCCC(=O)Nc1cc(C(=O)O)ccc1Sc1ccc(C)cc1,"inconclusive: 26.9 µM [inhibitor, partial curve, poor fit]",
NC(=O)COC(=O)c1sc2ccccc2c1Cl,"inconclusive: 30.1 µM [inhibitor, partial curve, poor fit]",
CC(C)C(=O)Nc1nc(-c2ccccc2)ns1,active: 15.1 µM,
Cc1ccc2[nH]c3c(c2c1)CN(C(=O)CN1CCCc2ccccc21)CC3,"inconclusive: 26.9 µM [inhibitor, partial curve, poor fit]",
O=C1NC(C(=O)O)=CC(c2ccc([N+](=O)[O-])cc2)N1 (stereo unspecified),"inconclusive: 37.9 µM [inhibitor, partial curve, poor fit]",
CCN(C(=O)CSc1nc2ccccc2n1CC(=O)NCc1ccc(OC)cc1)c1ccccc1,,inactive: -15%
Cc1cc(SCC(=O)N2CCN(C(=O)c3ccco3)CC2)c(C)cc1Br,,inactive: 3.84%
CCOC(=O)c1ccc(NC(=O)CN2c3ccccc3S(=O)(=O)c3ccccc32)cc1,,inactive: -1.02%
Cc1ccc2nc(CSc3nnc(NC(=O)c4cccc(Br)c4)s3)cc(=O)n2c1,"inconclusive: 12 µM [inhibitor, partial curve, poor fit]",
COn1c(-c2ccccc2)c(C=O)c2ccccc21,"inconclusive: 37.9 µM [inhibitor, partial curve, poor fit]",
O=C(c1cc(-c2ccccn2)nc2ccccc12)N1CCN(c2ncccn2)CC1,"inconclusive: 26.9 µM [inhibitor, single point]",
COC(=O)c1ccccc1N1C(=O)[C@@H]2C(c3ccc(Br)cc3)=NO[C@@H]2C1=O,"inconclusive: 0.269 µM [inhibitor, full curve, poor fit]",
Cc1[nH]nc(SCC(=O)N2CCCCCC2)c1[N+](=O)[O-],"inconclusive: 23.9 µM [inhibitor, single point]",
C=CCN(c1ccc(C(=O)Nc2ccc3c(c2)OCO3)cc1)S(C)(=O)=O,"inconclusive: 23.9 µM [inhibitor, partial curve, poor fit]",
CC(C)(C)NC(=O)C(c1ccncc1)N(C(=O)C1CSC(=O)C1)c1ccccc1 (stereo unspecified),,inactive: -0.659%
Cc1[nH]n(-c2ccccc2)c(=O)c1N=Nc1ccccc1O,active: 8.49 µM,
Cc1ccc(C2NC(=O)c3c(sc4c3CCN(C)C4)N2)o1 (stereo unspecified),,inactive: -16.1%
O=C1SC(c2ccccc2)=C/C1=C\N1CCCCC1,active: 19 µM,
O=c1[nH]c2ccccc2nc1-c1ccc(Cl)cc1,"inconclusive: 6.01 µM [inhibitor, full curve]",
Cc1ccnc(NC(=O)c2ccc3c(c2)S(=O)(=O)c2ccccc2C3=O)c1,active: 15.1 µM,
COc1ccccc1NC(=O)CSc1nnc2c3ccccc3n(C(C)C)c2n1,,inactive: -19.9%
COc1ccc(-c2cc3ccc(OCC(C)=O)cc3oc2=O)cc1OC,active: 15.1 µM,
O=C(CNc1ccc2ccccc2c1)N/N=C/c1ccncc1,"inconclusive: 23.9 µM [inhibitor, partial curve, poor fit]",
